Article PMC7215681
These are yes or no findings as the source states them, for the method shown. Binding seen in cells or lysates may run through a third protein. Some results given as binding are weak or reduced against the parent protein; the word gives no strength.

Protein sequences, listed by entry. Tags and fused reporters are not part of them.
UniProt P22199: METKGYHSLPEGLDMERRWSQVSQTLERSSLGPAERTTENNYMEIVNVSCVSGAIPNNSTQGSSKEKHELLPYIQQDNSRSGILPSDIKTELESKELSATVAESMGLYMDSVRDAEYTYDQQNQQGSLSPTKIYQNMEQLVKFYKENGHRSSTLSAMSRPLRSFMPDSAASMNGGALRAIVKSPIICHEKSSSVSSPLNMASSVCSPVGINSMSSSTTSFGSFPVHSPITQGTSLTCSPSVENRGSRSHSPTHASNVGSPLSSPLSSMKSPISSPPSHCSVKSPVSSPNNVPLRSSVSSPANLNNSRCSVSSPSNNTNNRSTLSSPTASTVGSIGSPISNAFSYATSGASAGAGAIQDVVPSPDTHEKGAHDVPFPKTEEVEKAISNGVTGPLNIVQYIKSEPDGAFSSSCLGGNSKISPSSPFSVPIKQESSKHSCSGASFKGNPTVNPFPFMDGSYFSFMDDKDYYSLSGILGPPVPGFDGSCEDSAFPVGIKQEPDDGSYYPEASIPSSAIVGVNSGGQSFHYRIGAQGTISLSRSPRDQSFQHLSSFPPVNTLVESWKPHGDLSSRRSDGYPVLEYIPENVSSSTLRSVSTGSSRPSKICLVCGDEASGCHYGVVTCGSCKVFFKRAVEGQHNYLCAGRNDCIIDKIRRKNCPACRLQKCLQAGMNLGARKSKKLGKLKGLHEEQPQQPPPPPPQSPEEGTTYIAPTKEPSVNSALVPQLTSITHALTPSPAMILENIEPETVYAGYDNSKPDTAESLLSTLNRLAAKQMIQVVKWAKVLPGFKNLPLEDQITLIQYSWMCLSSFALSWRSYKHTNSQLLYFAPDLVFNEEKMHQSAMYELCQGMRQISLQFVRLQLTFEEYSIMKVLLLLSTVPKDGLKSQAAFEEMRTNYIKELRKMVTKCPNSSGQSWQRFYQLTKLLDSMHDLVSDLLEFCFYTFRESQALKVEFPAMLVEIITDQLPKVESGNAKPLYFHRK
UniProt P26817: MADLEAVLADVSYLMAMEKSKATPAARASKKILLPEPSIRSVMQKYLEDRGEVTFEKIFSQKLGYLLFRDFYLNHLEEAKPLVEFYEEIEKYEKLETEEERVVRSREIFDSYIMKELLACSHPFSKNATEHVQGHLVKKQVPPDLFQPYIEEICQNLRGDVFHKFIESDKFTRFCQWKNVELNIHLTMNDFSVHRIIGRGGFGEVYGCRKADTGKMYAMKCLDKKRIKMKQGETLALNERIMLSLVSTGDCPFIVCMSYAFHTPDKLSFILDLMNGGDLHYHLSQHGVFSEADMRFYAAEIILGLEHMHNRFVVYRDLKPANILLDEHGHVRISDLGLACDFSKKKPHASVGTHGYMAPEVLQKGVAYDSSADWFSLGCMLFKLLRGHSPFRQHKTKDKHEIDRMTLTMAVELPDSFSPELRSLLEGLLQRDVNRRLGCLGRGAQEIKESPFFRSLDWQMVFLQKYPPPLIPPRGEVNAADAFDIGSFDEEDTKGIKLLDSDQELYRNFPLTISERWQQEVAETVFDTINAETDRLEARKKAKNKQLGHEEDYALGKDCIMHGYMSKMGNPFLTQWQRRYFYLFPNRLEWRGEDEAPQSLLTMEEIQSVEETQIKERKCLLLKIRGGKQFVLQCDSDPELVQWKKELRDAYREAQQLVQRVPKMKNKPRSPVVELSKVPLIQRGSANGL
UniProt Q62833: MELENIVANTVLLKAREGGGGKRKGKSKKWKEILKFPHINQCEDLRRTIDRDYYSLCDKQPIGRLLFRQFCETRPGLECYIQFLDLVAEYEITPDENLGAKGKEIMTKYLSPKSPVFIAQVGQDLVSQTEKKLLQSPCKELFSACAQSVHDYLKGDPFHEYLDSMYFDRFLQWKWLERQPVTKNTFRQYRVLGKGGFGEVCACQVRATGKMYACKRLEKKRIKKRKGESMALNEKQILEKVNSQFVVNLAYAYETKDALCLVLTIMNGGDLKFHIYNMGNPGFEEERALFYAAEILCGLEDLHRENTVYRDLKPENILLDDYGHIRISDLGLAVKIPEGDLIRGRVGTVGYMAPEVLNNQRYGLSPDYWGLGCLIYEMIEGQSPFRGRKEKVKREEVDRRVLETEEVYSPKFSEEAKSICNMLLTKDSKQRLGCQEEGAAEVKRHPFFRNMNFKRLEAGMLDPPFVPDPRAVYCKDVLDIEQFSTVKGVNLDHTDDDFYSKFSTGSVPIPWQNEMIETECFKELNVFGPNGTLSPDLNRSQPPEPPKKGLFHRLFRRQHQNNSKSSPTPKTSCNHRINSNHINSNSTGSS

Tests used:
[1] = molecular target: T1, G protein-coupled estrogen receptor (rat (endogenous in H9c2)) (UniProt O08878); test: co-IP; GPER immunoprecipitated (anti-GPER on Protein A/G-Sepharose) from H9c2 extracts, immunoblot for GRK2 or GRK5; cells treated 15 min with vehicle, 100 nM G1 or 100 nM aldosterone
T1 sequence: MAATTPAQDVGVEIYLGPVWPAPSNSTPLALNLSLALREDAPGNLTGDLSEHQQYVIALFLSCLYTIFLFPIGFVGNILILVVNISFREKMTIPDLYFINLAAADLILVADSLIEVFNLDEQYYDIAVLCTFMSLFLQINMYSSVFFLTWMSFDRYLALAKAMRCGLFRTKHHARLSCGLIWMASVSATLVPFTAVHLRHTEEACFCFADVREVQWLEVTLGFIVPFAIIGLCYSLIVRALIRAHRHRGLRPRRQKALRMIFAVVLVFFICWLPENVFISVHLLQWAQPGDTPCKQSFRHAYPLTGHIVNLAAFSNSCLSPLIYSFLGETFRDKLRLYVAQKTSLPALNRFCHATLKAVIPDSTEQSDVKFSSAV

[2] = molecular target: T1, G protein-coupled estrogen receptor (rat (endogenous in H9c2)); test: co-IP; GPER immunoprecipitated from H9c2 extracts, immunoblot for GRK2; the sample without GPER agonist (vehicle, DMSO)
[3] = molecular target: mineralocorticoid receptor (rat (endogenous in H9c2)) (UniProt P22199); test: co-IP; MR immunoprecipitated (anti-MR on Protein A/G-Sepharose, overnight) from H9c2 whole cell extracts (20 mM Tris pH 7.4, 137 mM NaCl, 1% Nonidet P-40, 20% glycerol), immunoblot for GRK2 or GRK5; cells treated 15 min with vehicle, 100 nM G1, 100 nM aldosterone, 10 µM isoproterenol or 10 µM formoterol, or 30 min with 10 µM salbutamol with or without 10 µM U73122
[4] = molecular target: mineralocorticoid receptor (rat (endogenous in H9c2)) (UniProt P22199); test: co-IP; MR immunoprecipitated from cytosolic fraction extracts of H9c2 cells (NE-PER fractionation), untreated or 100 nM aldosterone 30 min, immunoblot for GRK5
[5] = molecular target: mineralocorticoid receptor (rat (endogenous in H9c2)) (UniProt P22199); test: co-IP; MR immunoprecipitated from nuclear fraction extracts of H9c2 cells (NE-PER fractionation), untreated or 100 nM aldosterone 30 min, immunoblot for GRK5

Sequence	binding [1]	binding [2]	binding [3]	binding [4]	binding [5]
G protein-coupled receptor kinase 2 (from UniProt P26817 1-689) (enzyme)	binds	no binding (condition: without GPER agonist (vehicle))	no binding	–	–
G protein-coupled receptor kinase 5 (from UniProt Q62833 1-590) (enzyme)	no binding	–	binds	binds	no binding (condition: in nuclear fraction extracts)
